From PubChem BioAssay AID2546 (National Center for Advancing Translational Sciences (NCATS), 2010)
The whole screen tested about 310,000 compounds, of which about 11,000 (3.5%) were called active. This list was built around the results that the source calls inconclusive (neither active nor inactive); the mix of calls is not that of the screen. The call rests on the fitted dose curve; in most records, active means well fitted inhibition curve with a large enough effect; inconclusive means small, poorly fitted or top-dose-only effect, or effect the other way; inactive means flat fitted curve, though single readings scatter. No potency is given beside an inconclusive call; the fits are too rough.
On the % scale 0 is the no-effect control and ±100 the full control effect; potency means the concentration at half of the fitted maximal effect; tags describe the fitted curve by direction and shape.

Assay: VP16 counterscreen qHTS for inhibitors of ROR gamma transcriptional activity;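 further: Gal4-VP16 expression switched on by copper sulfate through the metallothionein promoter; nearly all actives have a fitted effect of over 50% in size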
Conditions: Drosophila S2 Gal4-VP16 UAS-luciferase, luminescence, 20 h; activity, negative = inhibition: at 53.6 µM (top of the series)
For `CN(C)c1ccc(NC(=O)Cc2ccccc2)c2ccccc12`, the “activity, negative = inhibition” value was inactive: 29.8%. With `CCn1c(C)nc2cc(C(=O)NNS(=O)(=O)c3ccc(C)c(C)c3)ccc21` the Potency was inconclusive [inhibitor, single point]. For `CCOc1ccc(/C=N/Nc2nc(C)cs2)c(O)c1`, the Potency was active: 2.24 µM. With `O=C(O)/C(=C/c1cccnc1)NC(=O)c1ccccc1` the Potency was inconclusive [activator, single point]. With `CC(NS(=O)(=O)c1ccc2c(c1)C(C)(C)C(=O)N2C)c1ccccc1` (stereo not drawn) the Potency was inconclusive [inhibitor, full curve, poor fit]. With `Cc1cccc(-c2nc(CS(=O)CC(=O)NCCc3ccc(Cl)cc3)c(C)o2)c1` (stereo not drawn) the “activity, negative = inhibition” value was inactive: 2%. With `CSc1nnc(NC(=O)c2nc(S(=O)(=O)Cc3ccc(C)cc3)ncc2Cl)s1` the Potency was inconclusive [inhibitor, single point]. With `CC(C)=CCC/C(C)=C/Cc1c(O)ccc(C(=O)/C=C/c2ccc(O)cc2)c1O` the Potency was inconclusive [inhibitor, single point]. In the case of `CCC(=O)OCCNc1cc(Sc2nc3ccccc3[nH]2)c2nonc2c1[N+](=O)[O-]`, the Potency is reported as active: 4.47 µM. With `S=C(NCc1ccc(Cl)cc1)Nc1ccccc1Cl` the Potency was inconclusive [inhibitor, single point]. With `COc1ccccc1OCCC(=O)OCC(=O)c1[nH]c(C)c(C(C)=O)c1C` the Potency was inconclusive [inhibitor, single point]. With `COC(C/C=C/C(=O)COCc1ccccc1)OC` the Potency was inconclusive [inhibitor, single point]. With `Cc1cc(N=Cc2c(O)n(-c3ccc4c(c3)OCO4)c(=O)c3ccccc23)ccn1` the Potency was inconclusive [inhibitor, single point]. In the case of `Cc1ccc2c(c1)C1(SCCS1)C(=O)N2`, the “activity, negative = inhibition” value is reported as inactive: 0.94%. For `CCN1CCN(C(c2cccnc2)c2cc(Cl)c3cccnc3c2O)CC1` (stereo not drawn), the Potency was active: 5.01 µM. In the case of `CCOc1ccc(/C=C2\SC(=S)NC2=O)cc1OC`, the Potency is reported as inconclusive [activator, full curve, poor fit]. For `CCn1c(/C(C#N)=N/O)nc2ccccc21`, the Potency was inconclusive [inhibitor, single point]. With `O=C(Nc1cccnc1)c1cccc(S(=O)(=O)N2CCc3ccccc32)c1` the “activity, negative = inhibition” value was inactive: -20.4%. In the case of `O=C(CSc1cc(Cl)ccc1Cl)NC1CCCc2ccccc21` (stereo not drawn), the Potency is reported as inconclusive [inhibitor, single point]. In the case of `COc1ccc(/C=N/Nc2nc(N3CCCC3)nc(N3CCCC3)n2)c(OC)c1OC`, the “activity, negative = inhibition” value is reported as inactive: -15.6%. In the case of `CS(=O)(=O)N1CCCC(c2nc(-c3ccc(S(=O)(=O)NCc4ccccc4)cc3)no2)C1` (stereo not drawn), the Potency is reported as inconclusive [inhibitor, single point]. With `O=C(c1cccs1)N1CCN(Cc2ccccc2[N+](=O)[O-])CC1` the “activity, negative = inhibition” value was inactive: 0.822%. With `COc1ccc(C(=O)On2c(-c3ccc(Br)cc3)nc3ccccc3c2=O)cc1` the Potency was active: 5.01 µM. With `O=C(COc1ccc(Cl)cc1)Nc1nc(-c2ccc(S(=O)(=O)N3CCOCC3)cc2)cs1` the “activity, negative = inhibition” value was inactive: 5.93%. For `Cc1cc(=O)n2nc(N3CCC(C(=O)NCc4ccccc4Cl)CC3)sc2n1`, the “activity, negative = inhibition” value was inactive: -7.45%. In the case of `CCOC(=O)C(=NC1CCS(=O)(=O)C1)NNc1ccccc1Cl` (stereo not drawn), the “activity, negative = inhibition” value is reported as inactive: -2.67%. In the case of `O=[N+]([O-])c1ccc(Sc2cccc3cccnc23)c([N+](=O)[O-])c1`, the Potency is reported as active: 7.08 µM. With `CCc1ccc(-c2cc(C(=O)N/N=C/c3ccccn3)[nH]n2)cc1` the Potency was inconclusive [inhibitor, single point]. In the case of `COc1cc(CN(C)c2ncnc3sccc23)ccc1OC(F)F`, the Potency is reported as inconclusive [inhibitor, single point]. In the case of `COc1ccc(Cc2nnc(NC(=O)c3cc(OC)c(OC)c(OC)c3)s2)cc1OC`, the Potency is reported as inconclusive [activator, single point]. For `CC1CCCCN1S(=O)(=O)c1ccc(C(=O)Nc2nnc(-c3ccco3)o2)cc1` (stereo not drawn), the Potency was active: 0.631 µM. For `O=C(N/N=C/c1c[nH]c2ccccc12)c1cc(Br)ccc1O`, the Potency was active: 7.94 µM. In the case of `CCOCCCn1c(=S)[nH]c2ncccc2c1=O`, the Potency is reported as inconclusive [inhibitor, single point]. With `CCOC(=O)c1csc(N/N=C2\CCc3ccccc32)n1` the Potency was inconclusive [inhibitor, partial curve]. With `COc1ccc(C(=O)c2sc(Nc3ccccc3)nc2N)cc1OC` the Potency was inconclusive [inhibitor, single point]. For `COC(=O)c1ccc2c(c1)C(=O)/C(=C/c1ccc(O)cc1)O2`, the Potency was active: 1.58 µM. With `NS(=O)(=O)c1cccc(NC(=O)COC(=O)c2cc(-c3ccc(Cl)cc3)nc3ccccc23)c1` the Potency was inconclusive [inhibitor, single point]. For `O=c1[nH]c2ccc(Cl)cc2c(=O)n1Cc1ccco1`, the Potency was inconclusive [inhibitor, single point]. For `c1cncc(CNc2ccc3c(c2)OCO3)c1`, the Potency was inconclusive [inhibitor, single point]. In the case of `O=C(c1c(F)cccc1F)N1CCC(n2nnc3cc(C(F)(F)F)ccc32)CC1`, the Potency is reported as inconclusive [inhibitor, single point]. With `C=CCC1(CC=C)CCCN1C(=O)c1cc(COc2ccc(-n3cncn3)cc2)on1` the Potency was inconclusive [inhibitor, single point]. In the case of `Cc1ccc(C)c(C(C)NC(=S)NC2CCCCC2)c1` (stereo not drawn), the Potency is reported as active: 5.62 µM. In the case of `CC(C)NC(=S)N/N=C/c1cc(Br)ccc1O`, the Potency is reported as active: 4.47 µM. For `O=C(N/N=C/c1cccc(Oc2ccccc2)c1)c1cccc(Br)c1`, the Potency was inconclusive [inhibitor, single point]. For `COC(=O)c1cc(O)cc(OC)c1Oc1cc(C)cc(O)c1C(=O)O`, the Potency was active: 7.08 µM. With `COc1ccc(CN2CN=C(Nc3nc4ccccc4s3)NC2)cc1` the “activity, negative = inhibition” value was inactive: -6.08%. For `Cc1ccc(-n2c(CNc3ccc(F)cc3)nnc2SCC(=O)NCc2ccco2)cc1`, the “activity, negative = inhibition” value was inactive: 9.21%. In the case of `COC(=O)c1ccc(NC(=S)NC(=O)c2cc(-c3ccccc3)nc3ccccc23)cc1`, the Potency is reported as active: 2 µM.
